Hit rate of the full screen: of about 150,000 compounds, about 540 (0.36%) showed an effect of 50% or more. The list shows a part of the results.
These compounds were tested on Plasmodium falciparum (assay: Primary screen in NF54 nanoGlo assay, in single point, at 2uM, 72h; a lower Z score goes with more inhibition). Conditions: timepoint 72 hour.
Type: functional, Erythrocyte

In order of rising “% Inhibition” value:
1. CN(C)c1ccc(C2NC(=O)NC(O)(C(F)(F)F)C2C(=O)c2ccccc2)cc1 (stereo unspecified)  -21%
2. Cc1ccc2c(c1)C[C@@H](C(=O)NCCc1cn[nH]c1)N2  -18%
3. CCC(C)(O)Cc1cn(C2CCN(Cc3ccccc3)C2)nn1 (stereo unspecified)  -16%
4. CCN(CC)c1nc(N)cc(-c2cccc(C(=O)N3CC(O)C3)c2)n1  -14%
5. CCc1cc(NC(=O)C2CN(C(=O)C3CCCCC3)C2)n(C)n1  -13%
6. COc1ccccc1OCC(=O)Nc1ccc2c(c1)nc(CN1CCOCC1)n2C(C)C  -13%
7. CC(=O)N1CCC2(CC1)N=C(c1ccc(C)c(C)c1)C[C@@H](c1ccccc1O)N2  -11%
8. CCN(C(=O)[C@H]1CCCN(C(=O)c2ccoc2)C1)c1ccccc1  -11%
9. COC1CCCCCC1NC(=O)NC1CCCCC1OC (stereo unspecified)  -10%
10. CC1CCCCC1OCCNS(=O)(=O)Cc1ccon1 (stereo unspecified)  -9%
11. CCOC(=O)[C@H]1CCCN(C(=O)c2cnc(-c3ccc(F)cc3)nc2N(C)C(C)C)C1  -8%
12. CN(C)C[C@H]1CN(CC(=O)NCCCc2ccccc2)CCO1  -8%
13. CCOC(=O)c1cc(C2CC2)nc2c1c(=O)n(Cc1nc(-c3cccc(C)c3)oc1C)c(=O)n2C  -7%
14. O=C(CN(C1CCCCC1)S(=O)(=O)c1ccccc1)N1CCCCCC1  -5%
15. O[C@H](COc1ccc2c(c1)OCO2)Cn1nnc(-c2ccccc2)n1  -1%
16. CC1CN(C)CC1NS(=O)(=O)c1ccc2c(c1)OCCCO2 (stereo unspecified)  -1%
17. Cc1ccc(Cl)cc1NCC(=O)Nc1cccc(C(=O)NC2CC2)c1  0%
18. N=C1c2ccccc2CN1CC(=O)c1ccc2c(c1)OCCO2  0%
19. CC(=O)Nc1ccc([C@@H](O)[C@H]2COCC(=O)N2CC2CCCCC2)cc1  0%
20. CCCCc1nn(CC(=O)N2CCCOCC2)c(=O)n1Cc1ccccc1  3%
21. CN1CCC(NC(=O)c2c[nH]c3cccc(Br)c23)CC1  5%
22. CNC(=O)[C@@H]1C[C@H](NCc2cc(F)ccc2F)CN1C1Cc2ccccc2C1  20%
23. Cc1ccc(CN2C(=O)NC3(CCCCC3C)C2=O)c(OCC2CCOC2)c1 (stereo unspecified)  36%

In order of rising Z score:
1. Cc1ccc(CN2C(=O)NC3(CCCCC3C)C2=O)c(OCC2CCOC2)c1 (stereo unspecified)  -4.91
2. CNC(=O)[C@@H]1C[C@H](NCc2cc(F)ccc2F)CN1C1Cc2ccccc2C1  -2.5
3. CN1CCC(NC(=O)c2c[nH]c3cccc(Br)c23)CC1  -0.66
4. CCCCc1nn(CC(=O)N2CCCOCC2)c(=O)n1Cc1ccccc1  -0.27
5. N=C1c2ccccc2CN1CC(=O)c1ccc2c(c1)OCCO2  -0.06
6. Cc1ccc(Cl)cc1NCC(=O)Nc1cccc(C(=O)NC2CC2)c1  -0.03
7. CC(=O)Nc1ccc([C@@H](O)[C@H]2COCC(=O)N2CC2CCCCC2)cc1  0.04
8. CC1CN(C)CC1NS(=O)(=O)c1ccc2c(c1)OCCCO2 (stereo unspecified)  0.16
9. O[C@H](COc1ccc2c(c1)OCO2)Cn1nnc(-c2ccccc2)n1  0.31
10. O=C(CN(C1CCCCC1)S(=O)(=O)c1ccccc1)N1CCCCCC1  0.63
11. CCN(C(=O)[C@H]1CCCN(C(=O)c2ccoc2)C1)c1ccccc1  1.01
12. CCOC(=O)c1cc(C2CC2)nc2c1c(=O)n(Cc1nc(-c3cccc(C)c3)oc1C)c(=O)n2C  1.06
13. CC1CCCCC1OCCNS(=O)(=O)Cc1ccon1 (stereo unspecified)  1.11
14. COc1ccccc1OCC(=O)Nc1ccc2c(c1)nc(CN1CCOCC1)n2C(C)C  1.12
15. CC(=O)N1CCC2(CC1)N=C(c1ccc(C)c(C)c1)C[C@@H](c1ccccc1O)N2  1.2
16. CCOC(=O)[C@H]1CCCN(C(=O)c2cnc(-c3ccc(F)cc3)nc2N(C)C(C)C)C1  1.25
17. CCN(CC)c1nc(N)cc(-c2cccc(C(=O)N3CC(O)C3)c2)n1  1.41
18. CN(C)C[C@H]1CN(CC(=O)NCCCc2ccccc2)CCO1  1.41
19. COC1CCCCCC1NC(=O)NC1CCCCC1OC (stereo unspecified)  1.57
20. Cc1ccc2c(c1)C[C@@H](C(=O)NCCc1cn[nH]c1)N2  1.91
21. CCC(C)(O)Cc1cn(C2CCN(Cc3ccccc3)C2)nn1 (stereo unspecified)  2.32
22. CCc1cc(NC(=O)C2CN(C(=O)C3CCCCC3)C2)n(C)n1  2.45
23. CN(C)c1ccc(C2NC(=O)NC(O)(C(F)(F)F)C2C(=O)c2ccccc2)cc1 (stereo unspecified)  2.78

Reference: ChEMBL document CHEMBL4888484, “Replenishing the malaria drug discovery pipeline: Screening and hit evaluation of the MMV Hit Generation Library 1 (HGL1) against asexual blood stage Plasmodium falciparum ,using a nano luciferase reporter read-out” (2022)
